# From PMC4336329 (PLoS ONE, 2015)
# The whole screen tested about 310,000 compounds, of which about 14,000 (4.5%) showed an effect of 50% or more. The effect is printed as a negative number. This is one part of the list.
# Target: human ether-à-go-go-related gene (hERG) potassium channel (human, UniProt Q12809)
# Test: primary screen, population patch clamp on CHO cells stably expressing hERG
# 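Also: peak tail current of the secondary pulse compared with the same well before compound.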
# Chain of human ether-à-go-go-related gene (hERG) potassium channel (Q12809 whole entry, looked up): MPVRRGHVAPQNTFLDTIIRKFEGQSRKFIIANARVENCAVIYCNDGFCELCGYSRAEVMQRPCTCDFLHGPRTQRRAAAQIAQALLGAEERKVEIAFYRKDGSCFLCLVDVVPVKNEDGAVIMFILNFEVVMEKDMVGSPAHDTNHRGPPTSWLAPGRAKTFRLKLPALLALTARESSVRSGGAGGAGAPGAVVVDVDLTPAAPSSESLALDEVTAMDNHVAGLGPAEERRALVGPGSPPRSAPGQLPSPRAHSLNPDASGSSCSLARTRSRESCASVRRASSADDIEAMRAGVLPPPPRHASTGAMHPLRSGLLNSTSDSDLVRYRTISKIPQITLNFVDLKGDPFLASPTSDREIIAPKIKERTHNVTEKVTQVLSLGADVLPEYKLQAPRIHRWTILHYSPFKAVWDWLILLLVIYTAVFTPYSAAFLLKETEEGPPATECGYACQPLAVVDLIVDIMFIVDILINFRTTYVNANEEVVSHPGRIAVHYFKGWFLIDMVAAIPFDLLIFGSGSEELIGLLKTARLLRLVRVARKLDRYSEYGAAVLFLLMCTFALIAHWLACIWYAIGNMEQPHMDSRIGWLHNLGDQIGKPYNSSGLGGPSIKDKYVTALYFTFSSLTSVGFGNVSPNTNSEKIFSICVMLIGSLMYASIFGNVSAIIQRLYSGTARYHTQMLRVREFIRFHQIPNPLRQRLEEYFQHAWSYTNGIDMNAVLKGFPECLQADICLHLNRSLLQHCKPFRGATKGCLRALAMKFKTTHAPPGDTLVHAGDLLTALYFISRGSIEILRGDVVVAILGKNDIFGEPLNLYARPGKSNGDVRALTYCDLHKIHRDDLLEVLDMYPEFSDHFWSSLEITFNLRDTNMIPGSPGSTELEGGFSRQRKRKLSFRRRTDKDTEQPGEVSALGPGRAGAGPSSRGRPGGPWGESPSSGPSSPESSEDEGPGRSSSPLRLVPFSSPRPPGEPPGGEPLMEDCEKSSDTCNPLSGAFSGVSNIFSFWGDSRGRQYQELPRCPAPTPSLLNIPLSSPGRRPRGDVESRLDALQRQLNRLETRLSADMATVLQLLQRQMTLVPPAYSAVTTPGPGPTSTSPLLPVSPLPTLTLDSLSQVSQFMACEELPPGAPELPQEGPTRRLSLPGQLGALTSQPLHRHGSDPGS
row,SMILES,"hERG current change (%, negative = inhibition) at 10uM [%]"
1,CCN(CC)S(=O)(=O)c1ccc(C(=O)N2CCN(c3ncccn3)CC2)cc1,0.428
2,CC1CCCC(C)N1C(=O)c1cc(-c2ccc3c(c2)OCO3)on1 (stereo not drawn),5.12
3,CC(=O)Nc1ccc(S(=O)(=O)Nc2cccc(N(C)S(C)(=O)=O)c2)cc1,8.45
4,CN(C(=O)c1ccc(OC2CCN(CCc3ccccc3)CC2)cc1)C1CCCCC1,-63.5
5,COC(=O)C1=C(c2c(C)noc2C)C[C@@H]2CC[C@H]1N2C(=O)NCc1ccc(F)cc1,-10.5
6,CN(C)C(=O)COc1ncnc2sc(-c3ccccc3)cc12,12.3
7,CC(=O)c1ccc(-c2ccc(C(=O)N3CCN(c4ccc(F)cc4)CC3)o2)cc1,-16.7
8,CCCCN1C(=O)C(=O)NC[C@@H]1CCCCN,10.5
9,Cc1cc(C)n2cc(CSc3nc4cc(Cl)ccc4o3)nc2n1,-68.1
10,Cc1cccc(C(=O)OCc2cc3ccccc3[nH]c2=O)c1,3.65
11,Nc1nonc1C(=O)OCC(=O)N1CCOCC1,9.79
12,O=C(CSc1ccc2nnc(-c3ccncc3)n2n1)Nc1ccc2c(c1)OCO2,7.8
13,CCOCCCNC(=O)C1CCC(CNS(=O)(=O)c2ccc(F)cc2)CC1 (stereo not drawn),-21.8
14,O=[N+]([O-])c1cc(S(=O)(=O)Nc2ccc(Cl)cc2)ccc1N/N=C/c1ccncc1,21.2
15,C#CCOc1c(Cl)cc(/C=N/NC(N)=S)cc1OCC,-1
16,O=C(O)C1(c2ccccc2)CCN(S(=O)(=O)c2cccs2)CC1,5.95
17,COc1ccc(C(=O)Nc2cc(OC)nc(OC)n2)cc1,4.42
18,C=CCOc1c(CNc2cccc(C(=O)O)c2)cccc1OCC,-4.78
19,O=C(NCC(c1ccco1)N1CCc2ccccc2C1)C(=O)Nc1ccc(F)cc1F (stereo not drawn),-0.136

row,SMILES,"hERG current change (%, negative = inhibition) at 10uM [%]"
1,CCN1CCN(c2c(Cl)cccc2NC(=O)c2cccs2)CC1,-73.8
2,CCCN(Cc1ccccc1)C(=O)Nc1ccc2c(c1)nnn2C,-2.15
3,Cc1ccc(S(=O)(=O)Nc2ccc3c4c(cccc24)CC3)c(C)c1,6.73
4,CCOc1ccc(NS(=O)(=O)c2cc(NC(=O)CCS(=O)(=O)c3ccc(C)cc3)ccc2OC)cc1,14.9
5,CCOC(=O)C1C(=O)N(C)C2(C)CC1c1cc(OC)ccc1O2 (stereo not drawn),13.6
6,CCOc1ccc(N=c2oc3cc(O)ccc3cc2C(=O)NCC2CCCO2)cc1 (stereo not drawn),1.76
7,Cc1ccc(NC(=S)NC(NC(=O)c2ccccc2C)C(Cl)(Cl)Cl)c(C)c1 (stereo not drawn),22.8
8,CCOC(=O)c1c(NC(=O)CCC(=O)O)sc2c1CCCCC2,-5.59
9,CCNC(=S)NNC(=O)c1cc(CC(C)C)nc2ccccc12,15
10,COc1ccc(CSc2nnnn2C)cc1[N+](=O)[O-],-10.1
11,CCCC(c1nnnn1CC1CCCO1)N1CCN(c2ccccc2)CC1.Cl (stereo not drawn),-4.74
12,C/C(=N\NC(=O)c1ccc(Cl)c(Cl)c1)c1cccc(NC(=O)C(C)C)c1,1.91
13,Cc1ccccc1CN(CC(=O)Nc1cccc([N+](=O)[O-])c1)S(=O)(=O)c1ccc(Cl)cc1,15.1
14,CN(CC(=O)NCc1ccccc1Cl)S(=O)(=O)c1cccs1,-3.23
15,COc1ccc(Cl)cc1NC(=S)N1CCC(c2ccc(C)cc2)C1 (stereo not drawn),-1.95
16,COC(=O)c1cc(=O)n(Cc2cccs2)c(=NCc2cccs2)s1,-1.05
17,COc1ccc(C(CNC(=O)c2ccco2)N2CCCC2)cc1 (stereo not drawn),-7.05
18,O=C(CCN1C(=O)/C(=C\c2ccccc2Cl)SC1=S)N1CCN(c2ccccc2)CC1,13.2
19,COc1ccc(NC(=O)Cn2cnc3sc(C)c(S(=O)(=O)N4CCOCC4)c3c2=O)cc1Cl,-35.8

row,SMILES,"hERG current change (%, negative = inhibition) at 10uM [%]"
1,CCOC(=O)c1cnc2nc(COc3ccccc3)[nH]n2c1=O,-6.92
2,CCOCCCn1c(SCC(=O)Nc2ccc(C(N)=O)cc2)nc2ccccc2c1=O,-9.16
3,COc1ccc(N(C(=O)c2ccc(Br)o2)C2C=CS(=O)(=O)C2)c(OC)c1 (stereo not drawn),-19.3
4,Cc1c(C(=O)n2cnc3ccccc32)cccc1[N+](=O)[O-],-41.3
5,N#Cc1ccsc1NC(=O)COC(=O)C1=NNC(=O)CC1,6.29
6,Cc1ccc(S(=O)(=O)NCCc2nnc3ccc(NCCCOC(C)C)nn23)cc1,6.32
7,CCOc1ccc(CCN2C(=O)CCC2(C)C(=O)NC(C)CC)cc1OCC (stereo not drawn),-6.94
8,Cn1cc(C(N)=O)c2ccccc21,6.98
9,COc1ccccc1NC(=O)CN1CCN(c2ccccc2OC)CC1,-5.29
10,COc1ccc(CCNC(=O)CC(=O)NCCc2ccc(OC)cc2)cc1,25.1
11,COc1ccc(Cl)cc1NC(=O)CCN1C(=O)C2CC=CCC2C1=O (stereo not drawn),2.79
12,CCC(Sc1ncccc1C(=O)OC(C)C)C(=O)N1CCOCC1 (stereo not drawn),7.62
13,Cc1ccc(C(=O)Nc2nc3n(n2)C(c2ccccc2)CC(=O)N3)cc1 (stereo not drawn),14.5
14,Cc1coc2cc3oc(=O)c(CC(=O)N(C)CC(=O)O)c(C)c3cc12,16.6
15,COc1cc(NC(=O)c2cccnc2Sc2ccc(C)c(C)c2)cc(OC)c1OC,9.79
16,CCCn1nnnc1NCc1ccccc1F,8.11
17,CCCNc1c(N)c(=O)c1=O,6.3
18,CCO[C@H]1OC(C(=O)N2CCN(C)CC2)=C[C@@H](C(C)(C)C)[C@@H]1CCCO,0.924
19,Cc1ccn2c(=O)c(C(=O)NC3CCCCC3C)c(O)nc2c1 (stereo not drawn),3.26
